From US11365205B2 (Aurigene Discovery Technologies Limited, priority 2018, dated 2022) come the findings set out here.

What is called pIC50 is the negative decadic logarithm of the IC50, by convention in mol/L.

pIC50: −log10 of the molar value.

For the experiment, the target named is PRMT5/MEP50 Complex (Homo sapiens (Human), UniProt O14744). Kind of experiment: PRMT5 inhibition based on TR-FRET assay. The experiment is classed as biochemical. As to conditions: 32 nM PRMT5:MEP50, 50 nM Histone-H4 peptide, 1 μM SAM. The source says: PRMT5 Inhibition Based on TR-FRET Assay:
Protein arginine methyltransferase 5 (PRMT5) is a type II arginine methyltransferase that catalyze mono- and symmetric demethylation on arginine residues of histone or non-histone proteins in presence of S-adenosylmethionine (AdoMet or SAM) a cofactor responsible for donating the methyl group. PRMT5 is reported to be overexpressed in several human cancers. To identify compounds that inhibit the PRMT5 and decrease its activity, a TR-FRET based assay has been established. Time-resolved fluorescence resonance energy transfer (TR-FRET) HTS assays are homogeneous proximity assays where the interaction of two dye-labeled binding partners is detected by the energy transfer between a donor and an acceptor dye and the subsequent light emission by the acceptor dye. PRMT5 catalyzes Histone H4 peptide which is biotin tagged to the Lysine amino acid at carboxyl end, in presence of S-adenosyl-1-methionine (SAM) to methylate the peptide. The antibody specific to mono methylated H4 peptide (H4R3) with Ig conjugate binds to the methylated peptide, indirectly binding to the Europium lanthanide. […]
The compound dilutions were prepared as 7.5% DMSO stock solutions in assay buffer. […] The plates were then read on Victor-3 with Excitation at 340 nm and Emissions collected at 615 and 665 nm in TR-FRET protocol. […]
A general note: TR-FRET usually uses a lanthanide donor and a delayed reading to cut background.

UniProt O14744, sequence (O14744 whole entry): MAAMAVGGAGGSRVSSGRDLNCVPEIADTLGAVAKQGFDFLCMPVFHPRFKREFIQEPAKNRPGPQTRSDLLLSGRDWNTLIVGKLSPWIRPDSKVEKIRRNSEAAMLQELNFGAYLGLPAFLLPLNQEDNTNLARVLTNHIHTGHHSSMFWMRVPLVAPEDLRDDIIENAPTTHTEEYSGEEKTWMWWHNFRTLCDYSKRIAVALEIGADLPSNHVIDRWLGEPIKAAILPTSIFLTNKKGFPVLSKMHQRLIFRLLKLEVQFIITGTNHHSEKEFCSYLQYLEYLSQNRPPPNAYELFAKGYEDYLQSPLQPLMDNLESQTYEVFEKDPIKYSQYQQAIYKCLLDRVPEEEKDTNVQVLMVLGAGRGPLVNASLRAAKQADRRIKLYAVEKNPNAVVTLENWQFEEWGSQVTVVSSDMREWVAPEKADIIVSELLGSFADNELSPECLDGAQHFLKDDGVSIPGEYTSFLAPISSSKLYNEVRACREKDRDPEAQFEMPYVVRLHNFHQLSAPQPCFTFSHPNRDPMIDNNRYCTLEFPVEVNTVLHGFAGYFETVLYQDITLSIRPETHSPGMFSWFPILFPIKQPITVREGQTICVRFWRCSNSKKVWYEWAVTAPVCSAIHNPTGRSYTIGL
UniProt O14744, sequence (Q9BQA1 whole entry partner): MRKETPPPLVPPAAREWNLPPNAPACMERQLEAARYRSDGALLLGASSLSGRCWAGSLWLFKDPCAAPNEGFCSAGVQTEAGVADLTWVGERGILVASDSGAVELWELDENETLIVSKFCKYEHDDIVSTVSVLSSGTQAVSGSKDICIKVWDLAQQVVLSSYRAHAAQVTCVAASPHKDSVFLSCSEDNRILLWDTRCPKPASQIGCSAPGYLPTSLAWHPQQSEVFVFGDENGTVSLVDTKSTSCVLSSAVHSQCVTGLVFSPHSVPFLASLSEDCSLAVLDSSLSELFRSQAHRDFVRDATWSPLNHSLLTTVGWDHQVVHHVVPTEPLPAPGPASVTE

For `N#Cc1ccc(CN2C(=O)N(CC(O)CN3CCc4ccccc4C3)[C@@H]3CCCC[C@@H]32)cc1` (stereo partly drawn) [Example 101, 4-(((3aR,7aS)-3-(3-(3,4-dihydroisoquinolin-2(1H)-yl)-2-hydroxypropyl)-2-oxooctahydro-1H-benzo[d]imidazol-1-yl)methyl)benzonitrile], the pIC50 is 7.10.
With `N#Cc1cnc(CN2CCN(C[C@H](O)CN3CCc4ccccc4C3)C2=O)c(C(=O)N2CCCCC2)c1` [Example 102, (R)-6-((3-(3-(3,4-dihydroisoqumolhn-2(1H)-yl)-2-hydroxypropyl)-2-oxoimidazolidin-1-yl)methyl)-5-(piperidine-1-carbonyl)nicotinonitrile], the negative-log IC50 (pIC50) was 5.26.
